Laboratory results taken from article PMC6664820, “Novel natural and synthetic inhibitors of solute carriers SGLT1 and SGLT2” (Pharmacology Research & Perspectives, 2019).
Screen size: about 1,900 compounds; about 40 (2%) showed an effect of 50% or more. Some of the results follow.

Target: human SGLT1 (hSGLT1) (human, UniProt P13866)
Assay: primary screen, percent of control activity; higher = less effect of the substance
Parameters: single well
Conditions: 50 µM
Experimental: Two days before the assay, CHO‐wild type and CHO‐hSGLT1 cells were seeded in maintenance medium at 25 000 cells/well in clear‐bottom black 96‐well cell culture plates. Before the assay, cells were washed 3 times with 150 μL/well D‐glucose free DMEM with 0.3% (w/v) BSA. Library compounds at 50 μmol/L (singlicate) prepared in D‐glucose free DMEM with 160 μmol/L 1‐NBD‐glucose and 0.3% (w/v) BSA and negative controls (triplicate) were added at 100 μL/well and placed in a humidified incubator at 37°C with 5% CO2 for 90 minutes. Next, cells were washed 3 times with DMEM with 0.3% (w/v) BSA (150 μL/well). Care was taken to remove all medium after the last wash. Finally, 1‐NBD‐glucose was extracted from the cells by adding 10 μL/well isopropanol and orbital shaking for 5 minutes at 600 rpm, followed by incubation in the dark for 30 minutes. Fluorescence was measured on a Tecan Infinite M200 Microplate Reader (Tecan, Männedorf, Switzerland) with excitation at 445 nm and emission at 525 nm. The amount of 1‐NBD‐glucose taken up by the CHO‐wild type or CHO‐hSGLT1 cells in the presence or absence of test compounds was interpolated from 1‐NBD‐glucose calibration standards. The background uptake by CHO‐wild type was subtracted from the uptake by CHO‐hSGLT1. Background corrected uptake with test compound was expressed as a percentage of corrected uptake without test compound.

human SGLT1 (hSGLT1), sequence (P13866 whole entry, looked up): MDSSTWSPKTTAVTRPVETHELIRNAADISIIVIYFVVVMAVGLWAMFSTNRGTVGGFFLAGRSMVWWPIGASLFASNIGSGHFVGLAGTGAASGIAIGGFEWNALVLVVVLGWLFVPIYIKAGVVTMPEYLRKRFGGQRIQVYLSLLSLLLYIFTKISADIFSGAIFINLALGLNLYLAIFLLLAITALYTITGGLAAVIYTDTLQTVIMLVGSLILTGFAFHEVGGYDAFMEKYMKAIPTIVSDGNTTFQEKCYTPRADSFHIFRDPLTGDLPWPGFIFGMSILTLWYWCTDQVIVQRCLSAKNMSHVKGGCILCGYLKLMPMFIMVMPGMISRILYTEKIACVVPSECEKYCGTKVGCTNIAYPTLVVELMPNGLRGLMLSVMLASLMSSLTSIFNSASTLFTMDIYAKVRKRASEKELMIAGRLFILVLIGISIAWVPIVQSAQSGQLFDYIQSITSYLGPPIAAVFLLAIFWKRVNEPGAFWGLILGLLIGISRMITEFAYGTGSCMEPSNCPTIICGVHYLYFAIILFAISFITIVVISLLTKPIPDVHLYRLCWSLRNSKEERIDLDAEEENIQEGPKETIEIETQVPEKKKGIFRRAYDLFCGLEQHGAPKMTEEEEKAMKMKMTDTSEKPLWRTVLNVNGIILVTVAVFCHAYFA

Row | SMILES | NORMALIZED SGLT1 ACTIVITY (%)
1 | OC[C@H]1O[C@@H](O[C@@H]2[C@@H](CO)OC(O)(CO)[C@H]2O)[C@H](O)[C@@H](O)[C@H]1O (mixture of isomers) | 97
2 | CNC(=O)Oc1ccc2c(c1)[C@]1(C)CCN(C)[C@@H]1N2C.O=S(=O)(O)O | 87
3 | CC(C)NCC(O)COc1ccc(CC(N)=O)cc1 (centres unmarked) | 128
4 | COc1ccc(-c2coc3cc(O)ccc3c2=O)c(OC)c1 | 135
5 | O=C1c2ccccc2C(=O)C1c1ccccc1 | 111
6 | CC1(C)C2CC(=O)[C@]3(C)C(CC[C@@]4(C)[C@H](c5ccoc5)OC(=O)C5OC543)[C@@]2(C)[C@@H](O)C[C@H]1O (some centres unmarked) | 181
7 | CC(C)=CCC[C@](C)(O)C1CC=C(C)CC1 (some centres unmarked) | 99
8 | Cl.NC(CO)C(=O)NNCc1ccc(O)c(O)c1O (centres unmarked) | 108
9 | COc1ccc2cc1Oc1ccc(cc1)C[C@H]1c3c(cc4c(c3Oc3cc5c(cc3OC)CCN(C)[C@@H]5C2)OCO4)CCN1C | 100
10 | COP(=S)(OC)Oc1ccc(Sc2ccc(OP(=S)(OC)OC)cc2)cc1 | 84
11 | COC(=O)N/N=C/c1c[n+]([O-])c2ccccc2[n+]1[O-] | 116
12 | O=C(O)c1ccccc1OP(=O)(O)O | 104
13 | CCOP(=S)(OCC)Oc1nc(Cl)c(Cl)cc1Cl | 35
14 | COc1c(C(C)C)oc2cc3oc(=O)ccc3cc12 | 192
15 | C[C@H]1C[C@@H](O)[C@]2(O)[C@@]13CC(=O)OC[C@@]2(C)[C@](C)(O)C(=O)C3 | 72
16 | CS(C)(=O)=O | 83
17 | COc1cc2c(cc1O)C(Cc1ccc(O)cc1)N(C)CC2 (centres unmarked) | 89
18 | Cc1ccc2c(Cl)cc(Cl)c(O)c2n1 | 100
19 | COc1cc(O)c2c(=O)cc(-c3ccc(OC)c(-c4c(O)cc(O)c5c(=O)cc(-c6ccc([O-])cc6)oc45)c3)oc2c1.[K+] | 246

Row | SMILES | NORMALIZED SGLT1 ACTIVITY (%)
20 | CC[C@H]1OC(=O)[C@H](C)C(=O)[C@H](C)[C@@H](O[C@@H]2O[C@H](C)C[C@H](N(C)C)[C@H]2O)[C@](C)(OC)C[C@@H](C)C(=O)[C@H](C)[C@H]2N(CCCCn3cnc(-c4cccnc4)c3)C(=O)O[C@]12C | 103
21 | COc1cc(OC)c(-c2c(OC)cc(OC)cc2OC)c(OC)c1 | 105
22 | Sc1nc2ccccc2s1 | 141
23 | CO[C@@H]1[C@@H](O[C@@H]2O[C@H](C)[C@@H](O[C@H]3C[C@@](C)(O)[C@H](O)[C@H](C)O3)[C@H](N(C)C)[C@H]2O)[C@@H](CC=O)C[C@@H](C)[C@@H](O[C@H]2CC[C@H](N(C)C)[C@@H](C)O2)/C=C/C=C/C[C@H](C)OC(=O)C[C@H]1O | 121
24 | Cc1cc(=O)c2c(O)c3c(cc2o1)OCC(C)CC3 (centres unmarked) | 155
25 | COc1ccc(-c2coc3cc(O)ccc3c2=O)cc1 | 259
26 | CC(C)(C)N.CCC[C@H](N[C@@H](C)C(=O)N1[C@H](C(=O)O)C[C@@H]2CCCC[C@@H]21)C(=O)OCC | 79
27 | COc1c2c(cc3occ(-c4ccc5c(c4)OCO5)c(=O)c13)OC(C)(C)C=C2 | 131
28 | CC1(C)S[C@@H]2C(N3C(=O)[C@@H](c4ccccc4)NC3(C)C)C(=O)N2[C@H]1C(=O)[O-].[K+] (some centres unmarked) | 81
29 | CCOc1cccc(C(=O)c2ccc(O)c(O)c2O)c1 | 139
30 | CC(=O)O[C@@H]1CC2C(C)(CC[C@H](O)C2(C)C)C2CC[C@]3(C)C(=CC(=O)O[C@H]3c3ccoc3)C21C (some centres unmarked) | 215
31 | CCCCCCc1ccc(O)cc1O | 576
32 | COc1ccc(-c2c(O)c3c(OC)c4c(cc3oc2=O)OC(C)(C)C=C4)cc1 | 184
33 | CC(C)(C)NCC(O)c1ccccc1Cl.Cl (centres unmarked) | 104
34 | CC[C@H]1CN2CCc3cc(OC)c(OC)cc3[C@@H]2C[C@@H]1C[C@H]1NCCc2cc(OC)c(OC)cc21.Cl.Cl | 137
35 | O[C@H]1[C@H]2c3cc4c(cc3CN3CCC(=C[C@@H]1O)[C@H]23)OCO4 | 156
36 | CCCCNC(=O)NS(=O)(=O)c1ccc(C)cc1 | 122
37 | CN1C(C(=O)Nc2ccccn2)=C(O)c2sccc2S1(=O)=O | 181
38 | COc1ccc(/C=C/c2cc(O)cc(O[C@@H]3O[C@H](CO)[C@@H](O)[C@H](O)[C@H]3O)c2)cc1O | 84

Row | SMILES | NORMALIZED SGLT1 ACTIVITY (%)
39 | Cl.NCCc1ccccc1S(=O)(=O)F | 150
40 | COC(=O)[C@H]1[C@H]2C[C@H]3c4[nH]c5cc(OC)ccc5c4CCN3C[C@H]2C[C@@H](OC(=O)c2cc(OC)c(OC)c(OC)c2)[C@@H]1OC | 345
41 | CC(=O)[C@H]1CC[C@H]2[C@@H]3C[C@H](C)C4=CC(=O)CC[C@]4(C)[C@H]3[C@@H](O)C[C@]12C | 184
42 | COC(=O)c1c(C)cc(O)cc1O | 184
43 | CCc1cccc2c3c([nH]c12)C(CC)(CC(=O)O)OCC3 (centres unmarked) | 123
44 | C=C(C)c1cc2cc(C(C)=O)c(O)cc2o1 | 146
45 | CC[C@H](CCC(C)[C@H]1CCC2C3CCC4C[C@@H](O)CC[C@]4(C)C3CC[C@@]21C)C(C)C (some centres unmarked) | 82
46 | CC1(C)CC2C1CCC1(C)OC2(C)CCC1O (centres unmarked) | 126
47 | CC(C)CCCC(C)C1CCC2C3CC[C@H]4CCCC[C@]4(C)C3CC[C@]12C (some centres unmarked) | 69
48 | CC(C)=CCc1c(O)cc2oc(C)cc(=O)c2c1O | 260
49 | COc1c(C)c2c(c(O)c1C/C=C(\C)CCC(=O)O)C(=O)OC2 | 194
50 | CC[C@]12CCCN3CCc4c(n(c5ccccc45)C(=O)C1)[C@@H]32 | 108
51 | CC1(C)CC[C@]2(C(=O)O)CC[C@]3(C)C(=CCC4[C@@]5(C)CC[C@@H](O)C(C)(C)C5CC[C@]43C)C2C1 (some centres unmarked) | 133
52 | COc1cc(-c2coc3cc(O[C@@H]4O[C@H](CO)[C@@H](O)[C@H](O)[C@H]4O)c(OC)c(O)c3c2=O)cc(O)c1OC | 111
53 | COc1c2c(cc3c1OCO3)CC[N+](C)=C2.[Cl-] | 98
54 | COc1ccc(C(CN(C)C)C2(O)CCCCC2)cc1.Cl (centres unmarked) | 93
55 | NC(=O)NC(=O)Cc1ccccc1 | 137
56 | C=C[C@@](C)(O)CCC1C(=C)C[C@H](OC(C)=O)C2C(C)(C)CCCC12C (some centres unmarked) | 128
